Consider two molecules from patent US20220340685A1, “COMBINATION THERAPY WITH ENTPD2 AND CD73 ANTIBODIES” (Novartis AG, priority 2019, published 2022).

In one assay the target is T1, human ENTPD2 (Homo sapiens, UniProt Q9Y5L3).
T1 construct: residues 29-462 of human or cyno ENTPD2; GP67 signal peptide (N); made in house; host or cells: High Five (Trichoplusia ni) insect cells, baculovirus
T1 sequence (Q9Y5L3 29-462): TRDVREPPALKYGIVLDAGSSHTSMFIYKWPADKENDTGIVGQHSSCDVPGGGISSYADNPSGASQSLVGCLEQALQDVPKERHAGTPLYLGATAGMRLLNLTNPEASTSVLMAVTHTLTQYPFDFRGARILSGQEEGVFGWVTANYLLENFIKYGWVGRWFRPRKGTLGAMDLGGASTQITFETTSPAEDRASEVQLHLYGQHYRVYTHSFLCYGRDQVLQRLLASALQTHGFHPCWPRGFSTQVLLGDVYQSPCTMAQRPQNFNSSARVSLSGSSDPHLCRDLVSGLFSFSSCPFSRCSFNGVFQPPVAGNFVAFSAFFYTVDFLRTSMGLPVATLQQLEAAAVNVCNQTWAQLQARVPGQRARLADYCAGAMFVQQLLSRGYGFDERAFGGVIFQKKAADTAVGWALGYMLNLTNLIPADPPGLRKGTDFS
As to the kind of experiment: Biacore SPR kinetic affinity to human ENTPD2 ECD. In kind it is binding. The following applies: 25° C.; for Human ENTPD2 ka: association rate; for Human ENTPD2 kd: dissociation rate. As to the method:
(§1) Biacore Screening: Affinity was measured by determining the kinetic rate constants using surface plasmon resonance (SPR) on a Biacore T200 or T100 with the T200 sensitivity upgrade instrument (Biacore, GE Healthcare). Antibodies were captured on CM5 sensor chips (Biacore, GE Healthcare) prepared with a mouse anti-human IgG Fc antibody (ThermoFisher catalogue # 05-4200) amine coupled to the surface. […] ENTPD2 analytes were allowed to associate for 180 s and dissociate for up to 1800 s depending on the off-rate of the antibody at a flow rate of 30 μL/min. The running buffer was PBS pH 7.2 (prepared from a Corning 10X stock, cat# 46-013-CM) +0.05% Tween 20. Regeneration was accomplished with 30 s injections of 3 or 4 M MgCl2 to remove all the captured antibody and remaining complex from the surface, after which fresh antibody was captured. The raw data were analyzed using Biacore T200 Evaluation Software version 1.0 and fit to a 1:1 binding model, with all parameters set to fit globally except for RI, which was set to fit locally.
In general terms: Surface plasmon resonance follows binding to a sensor surface in real time, without labels.

The test system of assay [1] is cynomologus (cyno) ENTPD2. As to the kind of experiment: Biacore SPR kinetic affinity to cyno ENTPD2 ECD. Format: binding, cynomolgus monkey. As to conditions: 25° C.; for Cyno ENTPD2 ka: association rate; for Cyno ENTPD2 kd: dissociation rate. As to the method:
as §1

The next assay concerns the target T2, mouse ENTPD2 (Mus musculus, UniProt O55026).
T2 construct: residues 29-462 of mouse or rat ENTPD2 (the extracellular domain); His6; mouse IgK signal peptide (N); made in house; host or cells: FreeStyle 293-F cells (transient)
T2 sequence (O55026 29-462): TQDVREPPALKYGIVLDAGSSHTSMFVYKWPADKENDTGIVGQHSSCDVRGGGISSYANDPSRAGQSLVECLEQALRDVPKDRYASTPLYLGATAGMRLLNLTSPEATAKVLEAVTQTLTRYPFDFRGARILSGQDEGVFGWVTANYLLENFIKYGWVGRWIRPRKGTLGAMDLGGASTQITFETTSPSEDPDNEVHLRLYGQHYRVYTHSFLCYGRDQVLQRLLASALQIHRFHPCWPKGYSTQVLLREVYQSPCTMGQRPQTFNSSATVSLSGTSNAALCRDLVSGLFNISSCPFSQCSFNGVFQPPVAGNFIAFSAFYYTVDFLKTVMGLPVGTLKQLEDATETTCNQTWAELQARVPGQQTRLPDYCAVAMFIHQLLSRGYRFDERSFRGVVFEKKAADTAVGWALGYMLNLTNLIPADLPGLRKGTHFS
As to the kind of experiment: Antibody specificity: binding to mouse ENTPD2. The following applies: for Mouse ENTPD2 BIACore KD (nM): Biacore SPR. The procedure:
ELISA screening on directly coated antigen: Maxisorp™ 384-well plates (Thermo Nunc) were coated with 2 μg/ml of recombinant ENTPD2 diluted in PBS. After blocking with 2% BSA (bovine serum albumin) in PBS for 1 hr at room temperature, washing plates 3× with TBST (0.05% Tween 20 in TBS, Sigma Cat# T9039), primary antibodies in TBST and 2% BSA were added in a serial dilution and incubated for 1 hr at room temperature. Plates were washed again and bound antibodies were detected by incubation with anti-hFc gamma conjugated to horseradish peroxidase (HRP; Jackson ImmunoResearch, Cat#115-035-098, diluted 1:5000 in 1× TBST+2% BSA) for 1 hr at room temperature followed by washing with TBST and afterwards addition of SureBlue Peroxidase substrate (KPL, #52-00-03) substrate. After 15 min, absorbance at 650 nm was recorded and analyzed in GraphPad Prism6.
as §1
Antibody specificity for mAb1-mAb10 was confirmed. […] Antibodies mAb8, mAb9, and mAb10 show weak affinity to mouse ENTPD2. None of the selected antibodies bind to rat ENTPD2.

In another assay the test system is NIH/3T3 cells. As to the kind of experiment: Cross reactivity: FACS binding to parental NIH/3T3 control cells. The following applies: 50 nM antibody. The procedure:
FACS screening: Specific binding of candidate antibodies to endogenously expressed ENTPD2 was assessed by flow cytometry. Cells were rinsed thoroughly with 1× PBS and treated with Accutase (Millipore #SCR005) to lift from growth plates and resuspended at approximately 1×10^5 cells/90 μL in 1× FACS buffer (2% FBS +0.1% NaN3 in PBS). In a 96-well U-bottom plate, 10 μL of 10× antibody solution in FACS buffer was pre-seeded and 90 μL of cell suspension was added. Cell were incubated for 30 minutes at 4° C., washed 1× with cold PBS and resuspended in 100 μL of 1:500 secondary antibody 1× FACS buffer (Allophycocyanin conjugated F(ab′)2 goat anti-human IgG, Fcγ specific; Jackson Immunoresearch, Cat# 109-136-098). After additional incubation for 15 min at 4° C., cells were washed twice with PBS and resuspended in 100 μL of 1× FACS buffer with 4 μg/mL propidium iodide (Life Technologies, Cat# P3566). Geometric mean fluorescence intensity was calculated on live single cells using FlowJo software.
Cross reactivity Human ENTPD1 (NP_001767) expressing NIH/3T3 cells were generated using a retroviral transduction approach. 72hrs post transduction, engineered cells were stained with the anti-Human CD39/ENTPD1 APC-conjugated Antibody (R&D systems, Minneapolis, Minn.) and live cells that expressed human ENTPD1 were separated from the rest of the population via fluorescence activated cell sorting. Stable expression of ENTPD1 was periodically re-confirmed by FACS with the above described anti-Human CD39/ENTPD1 APC-conjugated Antibody (1:100).

B1: mAb6: humanized anti-human ENTPD2 antibody derived from mAb16; probably heavy chain SEQ ID NO: 72, light chain SEQ ID NO: 76 (antibody)
heavy: QVQLQESGPGLVKPSQTLSLTCTVSGYSITSGYYWNWIRQHPGKGLEWMGYISYDADNNYNPSLKNRITISRDTSKNQFSLKLSSVTAADTAVYYCAGGYYRYGLGSYSGSYYYVMDYWGQGTTVTVSSASTKGPSVFPLAPSSKSTSGGTAALGCLVKDYFPEPVTVSWNSGALTSGVHTFPAVLQSSGLYSLSSVVTVPSSSLGTQTYICNVNHKPSNTKVDKRV[left out - human IgG1 Fc]
light: DTQMTQSPSSLSVSVGDRATITCKASQSVDYEGHSYMNWYQQKPGKAPKLLIYAASNLESGVPSRFSGSGSGTDFTLTISSVQPEDFATYYCQQSNEDPPTFGGGTKLEIKRTVAAPSVFIFPPSDEQLKSGTASVVCLLNNFYPREAKVQWKVDNALQSGNSQESVTEQDSKDSTYSLSSTLTLSKADYEKHKVYACEVTHQGLSSPVTKSFNRGEC
Take B1: in the assay with human ENTPD2, the “Human ENTPD2 ka” value came to 350000 M⁻¹ s⁻¹ and the “Human ENTPD2 kd” value was determined as 0.00026 s⁻¹. In assay [1], the “Cyno ENTPD2 ka” value stood at 290000 M⁻¹ s⁻¹ and the “Cyno ENTPD2 kd” value was 0.01 s⁻¹. The “Mouse ENTPD2 BIACore KD (nM)” value in the assay with mouse ENTPD2 is on record as “No binding”. Further, the “Apparent FACS binding at 50 nM, NIH/3T3 cells” value with NIH/3T3 cells was “No binding”.

B2: mAb1: humanized anti-human ENTPD2 human IgG1 antibody derived from mAb17; heavy chain SEQ ID NO: 12, light chain SEQ ID NO: 23 (antibody)
heavy: EVQLVQSGAEVKKPGESLKISCKASGYTFTDYNMDWVRQMPGKGLEWMGDINPKYDISTYNQQFKGQVTISADKSIRTAYLQWSSLKASDTAMYYCARRGFFLYYGINYYYFDVWGQGTLVTVSSASTKGPSVFPLAPSSKSTSGGTAALGCLVKDYFPEPVTVSWNSGALTSGVHTFPAVLQSSGLYSLSSVVTVPSSSLGTQTYICNVNHKPSNTKVDKRV[left out - human IgG1 Fc]
light: DIQLTQSPSSLSASVGDRVTITCSASSSVSYIHWFQQKPGKAPKLLIYSTSNLASGVPSRFSGSGSGTFFTLTISSLQPEDFATYFCHQWSSYPWTFGQGTKVEIKRTVAAPSVFIFPPSDEQLKSGTASVVCLLNNFYPREAKVQWKVDNALQSGNSQESVTEQDSKDSTYSLSSTLTLSKADYEKHKVYACEVTHQGLSSPVTKSFNRGEC
B2: in the assay with human ENTPD2, the “Human ENTPD2 ka” value worked out at 110000 M⁻¹ s⁻¹ and the “Human ENTPD2 kd” value was 0.00019 s⁻¹. In assay [1], the “Cyno ENTPD2 ka” value was 360000 M⁻¹ s⁻¹ and the “Cyno ENTPD2 kd” value is 0.0012 s⁻¹. In the assay with mouse ENTPD2, the “binding / cross-reactivity to mouse ENTPD2” value was “not mouse ENTPD2 cross-reactive” and the “Mouse ENTPD2 BIACore KD (nM)” value is “No binding”. For the same molecule, the “Apparent FACS binding at 50 nM, NIH/3T3 cells” value with NIH/3T3 cells is reported as “No binding”.
